Patent US20190002581A1 (SUTRO BIOPHARMA, published 2019)

How the values were obtained:
[1] = target: T1, human EpCAM-His (analyte of the Biacore experiments) (human, UniProt P16422 24-265); test: SPR (Biacore), scFv-Fc captured on anti-FLAG, human EpCAM-His as analyte, 25 C
T1 construct: also called Human EpCAM (Biacore); hEpCAM
T1 sequence: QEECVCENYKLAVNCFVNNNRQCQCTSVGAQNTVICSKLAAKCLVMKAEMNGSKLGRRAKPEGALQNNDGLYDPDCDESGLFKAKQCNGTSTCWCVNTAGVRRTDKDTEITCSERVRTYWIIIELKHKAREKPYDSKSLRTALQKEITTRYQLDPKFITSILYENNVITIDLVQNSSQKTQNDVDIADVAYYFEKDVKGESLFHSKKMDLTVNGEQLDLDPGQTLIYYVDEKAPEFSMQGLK
Method: Monoclonal Anti-FLAG M2 IgG (Sigma-Aldrich # F9291) was immobilized onto a CMS chip (GE Life Sciences) using amine coupling chemistry (from Amine Coupling Kit, GE Life Sciences). The immobilization steps were carried out at a flow rate of 25 μL/min in 1×HBS-EP+ buffer (GE Life Sciences; 10× Stock diluted before use). The sensor surfaces were activated for 7 min with a mixture of NHS (0.05 M) and EDC (0.2 M). The Anti-Flag M2 IgG was injected over all 4 flow cells at a concentration of 25 μg/mL in 10 mM sodium acetate, pH 4.5, for 7 min. Ethanolamine (1 M, pH 8.5) was injected for 7 min to block any remaining activated groups. An average of 12,000 response units (RU) of capture antibody was immobilized on each flow cell.
Off-rate and Kinetic binding experiments were performed at 25° C. using 1×HBS-EP+ buffer. Test and control antibodies were injected over the Anti-FLAG surface at concentrations of 5-10 μg/mL for 12 seconds at a flow rate of 10 μL/min on flow cells 2, 3 and 4, followed by a buffer wash for 30 seconds at the same flow rate. Kinetic characterization of antibody samples was carried out with a single concentration of antigen (for off-rate ranking) or a 1:2 dilution series of antigen (for kinetic characterization) and 1 injection of 0 nM antigen. After capturing ligand (antibody) on the anti-FLAG surface, the analyte (human EpCAM-His) was bound at 50, 25, 12.5, 6.25 and 0 nM for 180 seconds, followed by a 600 second dissociation phase at a flow rate of 50 μl/min. Between each ligand capture and analyte binding cycle, regeneration was carried out using 2 injections of 10 mM glycine pH 2.0 for 30 seconds at 30 μL/min, followed by a 30 second buffer wash step.
The data were fit with the Biacore T200 Evaluation software, using a 1:1 Langmuir binding model. KD (affinity, nM) was determined as a ratio of the kinetic rate constants calculated from the fits of the association and dissociation phases.

[2] = target: T2, human EpCAM expressed on cells (stably transfected CHO cells, HCT-116, JIMT1) (human, UniProt P16422 24-314); test: flow cytometry, CHO cells expressing human EpCAM
T2 construct: also called Human EpCAM (CHO); Human EpCAM (HCT-116)
T2 sequence: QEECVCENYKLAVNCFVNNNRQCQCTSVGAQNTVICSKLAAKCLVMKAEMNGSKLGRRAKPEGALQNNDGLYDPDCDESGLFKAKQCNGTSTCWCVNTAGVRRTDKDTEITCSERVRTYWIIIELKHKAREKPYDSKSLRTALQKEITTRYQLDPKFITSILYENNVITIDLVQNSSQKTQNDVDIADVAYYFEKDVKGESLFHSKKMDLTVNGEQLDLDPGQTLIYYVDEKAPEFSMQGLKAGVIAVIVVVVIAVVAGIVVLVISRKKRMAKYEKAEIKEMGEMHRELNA
Method: (§1) CHO-k cells were transfected to stably express EpCAM on the cell surface. CHO parental and stably transfected CHO-EpCAM (human, cynomolgus and mouse EpCAM-expressing cells) cells were washed with DPBS, detached with Accutase™ (BD Biosciences; San Jose, Calif.), and resuspended in ice-cold FACS buffer (DPBS buffer supplemented with 0.5% bovine serum albumin).
(§2) A total of 200,000 cells per 96-well were incubated on ice for 60 mins with 100 nM of test antibodies diluted in FACS buffer. Cells were washed twice with FACS buffer and incubated on ice for 30 mins with R-phycoerythrin AffiniPure F(ab′)₂ fragment, goat anti-Human IgG, Fcγ fragment specific secondary detection antibody (Jackson ImmunoResearch Laboratories, West Grove, Pa.) diluted at 1:200 with FACS buffer. Cells were washed twice with FACS buffer, fixed in 4% paraformaldehyde in PBS (Santa Cruz Biotechnology; Dallas, Tex.) for 20 mins on ice in the dark, washed twice with FACS buffer and analyzed using the BD LSR II Flow Cytometer (BD Biosciences; San Jose, Calif.). Data were analyzed using FlowJo (FlowJo, LLC; Ashland, Oreg.) to determine mean fluorescence intensities. Binding constants were calculated using the statistical software, GraphPad Prism (GraphPad Software; La Jolla, Calif.) using the nonlinear regression equation, one site-specific binding with Hill slope. Secondary antibody alone was used as a control, in addition to measuring non-specific EpCAM antibody binding to CHO parental cells. For some variants, binding to human tumor cells, HCT 116 and JIMT1 cells were also evaluated.

[3] = target: T3, cynomolgus EpCAM expressed on stably transfected CHO cells (cynomolgus monkey, UniProt Q1WER1 26-314 (rhesus entry)); test: flow cytometry, CHO cells expressing cyno EpCAM
T3 construct: also called Cyno EpCAM (CHO)
T3 sequence: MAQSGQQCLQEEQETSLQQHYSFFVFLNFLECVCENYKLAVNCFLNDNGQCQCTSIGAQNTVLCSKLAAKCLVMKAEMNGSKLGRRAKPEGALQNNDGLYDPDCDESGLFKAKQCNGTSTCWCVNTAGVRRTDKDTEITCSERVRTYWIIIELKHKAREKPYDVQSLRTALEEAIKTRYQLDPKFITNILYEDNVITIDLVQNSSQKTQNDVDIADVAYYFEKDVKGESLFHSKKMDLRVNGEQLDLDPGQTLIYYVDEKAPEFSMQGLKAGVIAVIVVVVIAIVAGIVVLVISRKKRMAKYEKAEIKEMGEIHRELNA
Method: as §1, §2

[4] = target: T4, cynomolgus EpCAM (Biacore) (cynomolgus monkey, limits assumed); test: SPR (Biacore), cyno EpCAM
T4 construct: Construct used for the cyno Biacore measurements is not described; also called Cyno EpCAM (Biacore); cEpCAM
T4 chain: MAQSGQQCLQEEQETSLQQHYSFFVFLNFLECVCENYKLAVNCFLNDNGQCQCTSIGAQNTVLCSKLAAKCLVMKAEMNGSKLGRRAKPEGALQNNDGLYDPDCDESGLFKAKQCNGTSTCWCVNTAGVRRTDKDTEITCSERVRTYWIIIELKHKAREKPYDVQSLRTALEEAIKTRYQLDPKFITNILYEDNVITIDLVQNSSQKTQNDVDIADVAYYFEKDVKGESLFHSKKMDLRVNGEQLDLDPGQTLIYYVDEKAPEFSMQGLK

Binder	Kd [1] [nM]	koff [1] [s⁻¹]	kon [1] [M⁻¹ s⁻¹]	Kd [2] [nM]	Kd [3] [nM]	Kd [4] [nM]
SRP1304-G11 scFv-Fc antibody (Fc fusion, scFv-Fc format) MEVQLLESGGGLVRPGGSLRLSCAASGFTFSGSSMSWVRQAPGKGLEWVGAIDGGDGYTNYADSVRGRFTISRDNSKNTLYLQMNSLRAEDTAVYYCAKGWHPQTYYGLDYWGQGTLVTVSSGGGGSGGGGSGGGGSEIVLTQSPGTLSLSPGERATLSCRASQSVSSSYLAWYQQKPGQAPRLLIYGASSRATGIPDRFSGSSSGTDFTLTISRLEPEDFAVYYCQQYWYGPPTFGQGTKVEIKAAGSDQ[letters of human IgG1 Fc with changes omitted]GGSHHHHHH	3.99	0.000412	103000	3	–	–
SRP1557-A04 scFv-Fc antibody (Fc fusion, scFv-Fc format; the entry holds scFv, IgG1 Fc, FLAG and His tags) MEVQLLESGGGLVQPGGSLRLSCAASGFTFSGSSMSWVRQAPGKGLEWVGAIDGGEGSTAYADSVKGRFTISRDNSKNTLYLQMNSLRAEDTAVYYCAKGWHPQTMYDLDYWGQGTLVTVSSGGGGSGGGGSGGGGNEIVLTQSPGTLSLSPGERATLSCRASQNVSTNYLAWYQQKPGQAPRLLIYGASSRATGIPDRFSGSGSGTDFTLTISRLEPEDFAVYYCQQLVTNPPTFGQGTKVEIKAAGSDQ[letters of human IgG1 Fc with changes omitted]GSGDYKDDDDKGSGHHHHHH	1.78	0.000375	210000	1.85	2.5	18.2
SRP1557-A05 scFv-Fc antibody (Fc fusion, scFv-Fc format; the entry holds scFv, IgG1 Fc, FLAG and His tags) MEVQLLESGGGLVQPGGSLRLSCAASGFTFGGSSMSWVRQAPGKGLEWVGAIGGGEGSTGYADSVKGRFTISRDNSKNTLYLQMNSLRAEDTAVYYCAKGWHDQSLYDRDYWGQGTLVTVSSGGGGSGGGGSGGGGSEIVLTQSPGTLSLSPGERATLSCSASQTVSSSYIAWYQQKPGQAPRLLIYGASSRATGIPDRFGGSGSGTDFTLTISRLEPEDFAVYYCQQLLTSPPTFGQGTKVEIKAAGSDQ[letters of human IgG1 Fc with changes omitted]GSGDYKDDDDKGSGHHHHHH	3.56	0.000784	220000	2.49	1.83	22.9
SRP1557-B03 scFv-Fc antibody (Fc fusion, scFv-Fc format; the entry holds scFv, IgG1 Fc, FLAG and His tags) MEVQLLESGGGLVQPGGSLRLSCAASGFTFRSSSMSWVRQAPGKGLEWVGAIGGHEGYTGYADSVKGRFTISRDNSKNTLYLQMNSLRAEDTAVYYCAKGWNPQTLYHLDYWGQGTLVTVSSGGGGSGGGGSGGGGSEIVLTQSPGTLSLSPGERATLSCRASQKCSSSSMAWYQQKPGQAPRLLIYGASSRATGIPDRFSGSGSGTDFTLTISRLEPEDFAVYYCQQLQTSPPTFGQGTKVEIKAAGSDQ[letters of human IgG1 Fc with changes omitted]GSGDYKDDDDKGSGHHHHHH	3.43	0.00051	149000	1.45	1.59	120
SRP1557-B10 scFv-Fc antibody (Fc fusion, scFv-Fc format; the entry holds scFv, IgG1 Fc, FLAG and His tags) MEVQLLESGGGLVQPGGSLRLSCAASGFTFSGCSMSWVRQAPGKGLEWVGAIAGGEGNTGYADSVKGRFTISRDNSKNTLYLQMNSLRAEDTAVYYCAKGWHPQTLYDLDYWGQGTLVTVSSGGGGSGGGGSGGGGSEIVLTQSPGTLSLSPGERATLSCRASQGLASRYMAWYQQKPGQAPRLLIYGASSRATGIPDRFSGSGSGTDFTLTISRLEPEDFAVYYCQQVMTIPPTFGQGTKVEIKAAGSDQ[letters of human IgG1 Fc with changes omitted]GSGDYKDDDDKGSGHHHHHH	4.17	0.000598	143000	1.71	1.35	39.9
SRP1557-C06 scFv-Fc antibody (Fc fusion, scFv-Fc format; the entry holds scFv, IgG1 Fc, FLAG and His tags) MEVQLLESGGGLVQPGGSLRLSCAASGFTFRGASMSWVRQAPGKGLEWVGAIDGSQGSTGYADSVKGRFTISRDNSKNTLYLQMNSLRAEDTAVYYCAKGWHPQTMYDLDYWGQGTLVTVSSGGCGSGGGGSGGGGSEIVLTQSPGTLSLSPGERATLSCRASQRGTSSYLAWYQQKPGQAPRLLIYGASSRATGIPDRFSGSGSGTDFTLTISRLEPEDFAVYYCQQHVTSPPTFGQGTKVEIKAAGSDQ[letters of human IgG1 Fc with changes omitted]GSGDYKDDDDKGSGHHHHHH	5.46	0.000908	166000	1.08	0.7	29.7
SRP1557-F05 scFv-Fc antibody (Fc fusion, scFv-Fc format; the entry holds scFv, IgG1 Fc, FLAG and His tags) MEVQLLESGGGLVQPGGSLRLSCAASGFTFRGSSMSWVRQAPGKGLEWVGAIDGGEGSTGYADSVKGRFTISRDNSKNTLYLQMNSLRAEDTAVYYCAKDWHPQTLYDLDYWGQGTLVTVSSGGGGSGGGGSGGGGSEIVLTQSPGTLSLSPGERATLSCRASQTVSPSVLAWYQQKPGQAPRLLIYGASSRATGIPGRFSGSGSGTDFTLTISRLEPEDFAVYYCQQLVTNPPTFGQGTKVEIKAAGSDQ[letters of human IgG1 Fc with changes omitted]GSGDYKDDDDKGSGHHHHHH	–	–	–	3.24	2.99	–
SRP1557-G04 scFv-Fc antibody (Fc fusion, scFv-Fc format; the entry holds scFv, IgG1 Fc, FLAG and His tags) MEVQLLESGGGLVQPGGSLRLSCAASGFTFCGSSMSWVRQAPGKGLEWVGAIDGGVGSTGYADSVKGRFTISRDNSKNTLYLQMNSLRAEDTAVYYCAKGWHPQTLYDLDYWGQGTLVTVSSGGGDSGGGGSGGGGSEIVLTQSPGTLSLSPGERATLSCRASQSVSSSYLAWYQQKPGQAPRLLIYGASSRATGIPDRFSGSGSGTDFTLTISRLEPEDFAVYYCQQDSFVPPTFGQGTKVEIKAAGSDQ[letters of human IgG1 Fc with changes omitted]GSGDYKDDDDKGSGHHHHHH	–	–	–	3.68	1.83	–
